Measurements: the supplement of paper PMC11417369
± gives the standard deviation of the averaged measurements. The list shows a part of the results.

What follows are sequences tested on PfAP2-I AP2 domain 3 (GST-tagged) (assay: gcPBM binding intensity (ln(normalized median fluorescence intensity)); higher = stronger DNA binding).
Method in brief: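 GST-tagged P. falciparum DNA-binding domains, expressed in E. coli (about 25 μg on average), were applied for 1 h to an Agilent 4 × 180k array of primer-extended double-stranded 36-bp intergenic genomic probes plus negative controls. The binding buffer was 1× PBS with 1% milk, 0.2 mg/ml BSA, 0.5% salmon testes DNA and 0.03% Triton X-100. Bound protein was detected with Alexa488 anti-GST antibody and scanned at 488 nm. Binding intensity is the highest Masliner-normalised natural-log median intensity across replicate spots of either probe orientation.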

Sequence	gcPBM binding intensity (ln)
TATCACATATTATGATGTACAAAGATTCTGACTAAT [XGTACX_site2770]	7.46 ± 0.49
TACACGCAGAAACACACACACACACCCATATATATA [CACACA_site637]	8.46 ± 0.65
TTTCCTTATAAAAATACACACAAACTTTCATTAAAA [CACACA_site5953]	7.55 ± 0.47
TCATATTATTATATATGTACATACCAATATATTATA [XGTACX_site2988]	7.82 ± 0.45
TAGATATGTCTAAAAAGTACTTTCTATAACAATTCT [XGTACX_site6678]	7.42 ± 0.51
AGAGGGGAAAACATGATGCACTAGTATAACCAAGAA	10.1 ± 0.16
AGAGAAGAAAACAAAACACACACATATATCTTAATA [CACACA_site8699]	7.76 ± 0.79
AACTTAAAAAAAAAAAAAAAAAAAAAAAAAAAAAAA [GTGCAC_negctrl_site34]	8.44 ± 1.1
CCCAATAATTAAACAACACACATATATATCTGTAAT [CACACA_site5667]	7.88 ± 0.57
ATAAAATGGGCAAACACACACAAAAAAAAGATATAT [CACACA_site1648]	8 ± 0.58
AGGGGCGAAACAAAGGTGCTTTTATAAAATATGTAA	9.79
AGAAATCATCTGAATTGTACTAACAATTTTTTTTAA [XGTACX_site6191]	7.49 ± 0.44
TATTATAATAAAATATGTACACACATACACACATAT [XGTACX_site2360]	7.98 ± 0.41
CTTAAATCTACTATTTGTACATATTTTATTATTAAA [XGTACX_site6151]	7.86 ± 0.32
TAGATAAAATTAAAATGTACAAACCTTTTCCCTTAT [XGTACX_site1136]	7.62 ± 0.31
TATATATATATAAAGGTGCATATCTTTACGTATGTC [GTGCAC_site9665]	10.4 ± 0.23
ATATATATATATGATACATGCATATATTTTTTCTTC [TGCATGCA_site216]	9.1 ± 0.13
TTTTTTTTATCAAATTGTACATATACAAAGGTGATC [XGTACX_site8054]	7.73 ± 0.33
ATTTTATTTTTTAATAGTACTCATTTTTTATGTGAA [XGTACX_site5494]	7.75 ± 0.43
ATATATATATATATATGTACTTATTTATTTTATATA [XGTACX_site8810]	9.35 ± 0.49
AGCATATATTAAACATGTACATAAATATATTATATA [XGTACX_site1451]	7.99 ± 0.2
GAATGAATGATAAATTTTTTTTTCTTTTTTTTTTTG [CACACA_negctrl_site333]	7.09 ± 0.59
TGTTATATATATACAAACATACACATTTATAAACAA [TGCATGCA_negctrl_site235]	7.75 ± 0.56
TATTAATTTCTTTTTTCTCATCACTTTCAAAATGAA [CACACA_negctrl_site1055]	7.9 ± 0.47
TTATGATCATTTATATGTACACATAATTTTTGTGCT [XGTACX_site5568]	7.75 ± 0.49
